# In the supplement of paper PMC12217912:
# The list shows a part of the results. Sequences were assembled here from the parent chain. Inactive controls read about 0.05.
# B1: TEV protease; numbered along this chain (parent)
# chain: MGESLFKGPRDYNPISSSICHLTNESDGHTTSLYGIGFGPFIITNKHLFRRNNGTLVVQSLHGVFKVKDTTTLQQHLVDGRDMIIIRMPKDFPPFPQKLKFREPQREERICLVTTNFQTKSMSSMVSDTSCTFPSGDGIFWKHWIQTKDGQCGSPLVSTRDGFIVGIHSASNFTNTNNYFTSVPKNFMELLTNQEAQQWVSGWRLNADSVLWGGHKVFMVKPEEPFQPVKEATQL
# Variants of: B1
# Assay: raw area under fraction-flipped curve 0-4 h after induction (AUC4h, not background-subtracted), DNA-recorder readout of cleavage of the substrate (dimensionless); higher = more cleavage of the substrate by the protease variant
# Conditions: temperature: 34 °C; time window: 0-4 h after rhamnose induction
# 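Note: Bxb1 expression induced with 0.2% (w/v) L-rhamnose at OD600 near 0.5, cultures sampled hourly, flipped fraction per protease–substrate barcode pair counted by paired-end Illumina sequencing.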
Variant,area with substrate ENLYFES,area with substrate ENLYFFS,area with substrate ENLYFHS,area with substrate ENLYFIS,area with substrate ENLYFKS,area with substrate ENLYFLS,area with substrate ENLYFMS,area with substrate ENLYFNS,area with substrate ENLYFPS,area with substrate ENLYFRS,area with substrate ENLYFSS,area with substrate ENLYFTS,area with substrate ENLYFVS,area with substrate ENLYFWS,area with substrate ENLYFYS,area with substrate ENLYFGS,area with substrate ENLYFDS
MGESLFKGPRDYNPISSSRCHLTNESDGHTTSLYGIGFGPFIITNKHLFRRNNGTLVVQSLHGVFKVKDTTTLQQHLVDGRDMIIIRMPKDFPPFPQKLKFREPQREERICLVTTNFQTKSMSSMVSDTSCTFPSGDGIFWKHWIQTKDGQCGSPLVSTRDGFIVGIHSASNFTNTNNYFTSVPKNFMELLTNQEAQQWVSGWRLNADSVLWGGHKVFMVKPEEPFQPVKEATQL [I19R],0.0445,0.0612,0.0486,0.0474,0.0592,0.0399,0.0455,0.0556,0.0511,0.0533,0.0463,0.0442,0.0461,0.0466,0.0451,–,–
MGESLFKGPRDYNPISSSICHLTNESDGHTTSLYGIGFGPFIITNKHLFRRNNGTLVVQSLHGVFKVKDTTTLQQHLVDGRDMIIIRMPKDFPPFPQKLKFREPQREERICSVTTNFQTKSMSSMVSDTSCTFPSGDGIFWKHWIQTKDGQCGSPLVSTRDGFIVGIHSASNFTNTNNYFTSVPKNFMELLTNQEAQQWVSGWRLNADSVLWGGHKVFMVKPEEPFQPVKEATQL [L112S],0.0522,0.0703,0.0723,0.0536,0.0546,–,0.0498,0.0949,0.0745,0.0389,0.0623,0.0562,0.0445,–,0.0576,0.0443,–
MGESLFKGPRDYNPISSSICHLTNESDGHTTSLYGIGFGPFIITNKHLFRRNNGTLVVQSLHGVFKVKDTTTLQQHLVDGRDMIIIRMPKDFPPFPQKLKFREPQREERICLVTTNFQTKSMSSMVSDTSCTFPSGDGIFWKHWIQTKDGQCGSPLVSTRDGFIVGIHSASNFTNTNNYFTSVLKNFMELLTNQEAQQWVSGWRLNADSVLWGGHKVFMVKPEEPFQPVKEATQL [P184L],0.042,0.0631,0.0567,0.0534,–,–,0.0509,0.0655,–,0.0577,0.0552,0.0473,–,0.05,–,0.0677,–
MGESLFKGPRDYNPISSSICHLTNESDGHTTSLYGIGFGPFIITNKHLFRRNNGTLVVQSLHGVFKVKDTTTLQQHLVDGRDMIIIRMPKDFPPFPQKLKFREPQREERICLVTTNFQTKSMSSMVSDTSCTFPSGDGIFWKHWIQTKDGQCGSPLVSTRDGFIVGIHSASNFTNTNNYFTSVCKNFMELLTNQEAQQWVSGWRLNADSVLWGGHKVFMVKPEEPFQPVKEATQL [P184C],–,–,0.0458,0.0672,–,–,0.0727,–,0.0705,–,0.0621,0.0627,–,–,0.0544,–,0.0697
MGESLFKGPRDYNPISSSICHLTNESDGHTTSLYGIGFGPFIITNKHLFRRNNGTLVVQSLHGVFKVKDTTTLQQHLVDGRDMIIIRMPKDFPPFPQKLKFREPQREERICLVTTNFQTKSMSSMVSDTSCTFPSGDGIFWKHWIQTKDGQCGSPLVSTRDGFIVGIHSASNFTNTNNYFTSVPKNFMELLTNQEAQQWVSGWRLNADSVLWGGHKVFMVKPEKPFQPVKEATQL [E224K],0.0617,0.0716,–,0.0582,0.0634,–,0.0614,0.0582,0.0535,0.0456,0.0597,0.0576,–,0.0411,0.048,0.0615,0.0539
MGESLFKGPRDYNPISSSICHLTNESDGHTTSLYGIGFGPFIITNKHLFRRNNGTLVVQSLHGVFKVKDTTTLQQHLVDGRDMIIIRMPKDFPPFPQKLKFREPQREERICLVTTNFQTKSMSSMVSDTSCTFPSGDGIFWKHWIQTKDGQCGSPLVSTRDGFIVGIHSASNFTNTNNYFTSVPKNFMELLTNQEAQQWVSGWRLNADSVLWGGHKVFMVKPEHPFQPVKEATQL [E224H],0.0631,0.066,–,0.0578,–,0.0625,0.08,–,0.0434,0.0625,0.0445,0.0511,0.0698,–,0.0541,–,0.0652
MGESLFKGPRDYNPISSSICHLTNESDGHTTSLYGIGFGPFIITNKHLFRRNNGTLVVQSLHGVFKVKDTTTLQQHLVDGRDMIIIRMPKDFPPFPQKLKFREPQREERICLVTTNFQTKSMSSMVSDTSCTFPSGDGIFWKHWIQTKDGQCGSPLVSTRDGFIVGINSASNFTNTNNYFTSVPKNFMELLTNQEAQQWVSGWRLNADSVLWGGHKVFMVKPEEPFQPVKEATQL [H168N],0.0555,–,–,0.0536,–,–,0.0643,0.0725,–,–,0.0489,–,–,–,0.0481,–,–
MGESLFKGPRDYNPISSSICHLTNESDGHTTSLYGIGFGPFIITNKHLFRRNNGTLVVQSLHGVFKVKDTTTLQQHLVDGRDMIIIRMPKDFPPFPQKLKFREPQREERICLVTTNFQTKSMSSMVSDTSCTFPSGDGIFWKHWIQTKDGQCGSPLVSTNDGFIVGIHSASNFTNTNNYFTSVPKNFMELLTNQEAQQWVSGWRLNADSVLWGGHKVFMVKPEEPFQPVKEATQL [R160N],0.0835,–,–,0.0563,–,–,–,0.0548,–,0.0635,–,–,0.0464,0.0507,0.0504,0.0525,–
MGESLFKGPRDYNPISSSICHLTNESDGHTTSLYGIGFGPFIITNKHLFRRNNGTLVVQSLHGVFKVKDTTTLQQHLVDGRDMIIIRMPKDFPPFPQKLKFREPQREERICLVTTNFQTFSMSSMVSDTSCTFPSGDGIFWKHWIQTKDGQCGSPLVSTRDGFIVGIHSASNFTNTNNYFTSVPKNFMELLTNQEAQQWVSGWRLNADSVLWGGHKVFMVKPEEPFQPVKEATQL [K120F],0.058,0.0619,0.0516,0.0576,–,0.074,0.0632,0.0602,0.0592,–,–,0.0548,–,0.0635,–,–,–
MGESLFKGPRDYNPISSSICHLTNESDGHTTSLYGIGFGPFIITNKHLFRRNNGTLVVQSLHGVFKVKDTTTLQQHLVDGRDMIIIRMPKDFPPFPQKLKFREPQREERICLVTTNFQTKSMSSMVSDTSCTFPSGDGIFWKHWIQTKDGQCGSPLVSTRDGFIVGIHSASNFTNRNNYFTSVPKNFMELLTNQEAQQWVSGWRLNADSVLWGGHKVFMVKPEEPFQPVKEATQL [T176R],–,–,–,–,0.0769,–,0.0435,0.0933,0.0611,–,0.0418,0.0508,–,–,–,–,0.0579
MGESLFKGPRDYNPISSSICHLTNESDGHTTSLYGIGFGPFIITNKHLFRRNNGTLVVQSLHGVFKVKDTTTLQQHLVDGRDMIIIRMPKDFPPFPQKLKFREPQREERICLVTTNFQTKSMSSMVSDTSCTFPSGDGIFWKHWIQTKDGQCGSPLVSTRDGFIVGIHSASNFTNTNNYFTSVPKNFMELLTNQEAQQWVSGWRLNADSVLWGGHKVFMVKPEEPFQPVKECTQL [A232C],0.0487,–,–,0.0621,–,–,0.051,0.0797,–,0.0389,–,–,–,0.0442,0.0395,0.0522,–
MGESLFKGPRDYNPISSSICHLTNESDGHTTSLYGIGFGPFIITNKHLFRRNNGTLVVQSLHGVFKVKDTTTLQQHLVDGRDMIIIRMPKDFPPFPQKLKFREPQREERICLVTTNFQTKSMSSMVSDTSCTFPSGDGIFWKHWIQTKDGQMGSPLVSTRDGFIVGIHSASNFTNTNNYFTSVPKNFMELLTNQEAQQWVSGWRLNADSVLWGGHKVFMVKPEEPFQPVKEATQL [C152M],–,0.0799,–,–,0.0537,0.0606,0.0502,0.035,–,–,0.0623,–,–,0.0546,–,–,0.0703
MGESLFKGPRDYNPISSSICHLTNESDGHTTSLYGIGFGPFIITNKHLFRRNNGTLVVQSLHGVFKVKDTTTLQQHLVDGRDMIIIRMPKDFPPFPQKLKFREPQREERICLVTTNFQTKSMSSMVSDTSCTFPSGDGIFWKHWIQTKDGQVGSPLVSTRDGFIVGIHSASNFTNTNNYFTSVPKNFMELLTNQEAQQWVSGWRLNADSVLWGGHKVFMVKPEEPFQPVKEATQL [C152V],0.0532,–,–,0.0608,0.0626,0.0619,0.0446,0.0582,0.067,–,–,0.0579,–,0.0514,0.0549,–,0.0579
MGESLFKGPRDYNPISSSICHLTNESDGHTTSLYGIGFGPFIITNKHLFRRNNGTLVVQSLHGVFKVKDTTTLQQHLVDGRDMIIIRYPKDFPPFPQKLKFREPQREERICLVTTNFQTKSMSSMVSDTSCTFPSGDGIFWKHWIQTKDGQCGSPLVSTRDGFIVGIHSASNFTNTNNYFTSVPKNFMELLTNQEAQQWVSGWRLNADSVLWGGHKVFMVKPEEPFQPVKEATQL [M88Y],0.0548,0.0589,–,0.0503,–,0.0224,–,0.0496,0.0495,–,–,–,0.0507,–,–,0.0514,–
MGESLFKGPRDYNPISSSICHLTNESDGHTTSLYGIGFGPFIITNKHLFRRNNGTLVVQSLHGVFKVKDTTTLQQHLVDGRDMIIIRMPKDFPPFPQKLKFREPFREERICLVTTNFQTKSMSSMVSDTSCTFPSGDGIFWKHWIQTKDGQCGSPLVSTRDGFIVGIHSASNFTNTNNYFTSVPKNFMELLTNQEAQQWVSGWRLNADSVLWGGHKVFMVKPEEPFQPVKEATQL [Q105F],0.0645,–,0.0488,0.0474,0.0677,0.0477,–,0.0393,0.0545,0.0453,0.0502,0.0885,–,–,0.03,–,–
MGESLFKGPRDYNPISSSICHLTNESDGHTTSLYGIGFGPFIITNKHLFRRNNGTLVVQSLHGQFKVKDTTTLQQHLVDGRDMIIIRMPKDFPPFPQKLKFREPQREERICLVTTNFQTKSMSSMVSDTSCTFPSGDGIFWKHWIQTKDGQCGSPLVSTRDGFIVGIHSASNFTNTNNYFTSVPKNFMELLTNQEAQQWVSGWRLNADSVLWGGHKVFMVKPEEPFQPVKEATQL [V64Q],0.0842,0.0616,–,0.0529,–,–,0.0679,–,0.0594,0.0637,0.0585,–,–,0.057,–,–,–
MGESLFKGPRDYNPISSSICHLTNESDGHTTSLYGIGFGPFIITNKHLFRRNNGTLVVQSLHGVFKVKDTTTLQQHLVDGRDMIIIRMPKDFPPFPQKLKFREPQREERICLVTTNFQTKSMSSMVSDTSCTFPSGDGIFWKHPIQTKDGQCGSPLVSTRDGFIVGIHSASNFTNTNNYFTSVPKNFMELLTNQEAQQWVSGWRLNADSVLWGGHKVFMVKPEEPFQPVKEATQL [W144P],–,0.0511,–,0.0532,0.0595,–,0.0653,–,0.0675,0.0656,0.0493,0.0474,0.0651,–,–,–,0.0552
MGESLFKGPRDYNPISSSICHLTNESDGHTTSLYGIGFGPFIITNKHLFRRNNGTLVVQSLHGVFKVKDTTTLQQHLVDGRDMIIIRMPKDFPPFPQKLKFREPQREERICLVTTNFQTKSMSSMVSDTSCTFPSGDGIFWKHSIQTKDGQCGSPLVSTRDGFIVGIHSASNFTNTNNYFTSVPKNFMELLTNQEAQQWVSGWRLNADSVLWGGHKVFMVKPEEPFQPVKEATQL [W144S],0.0659,0.0725,0.0581,0.0536,0.0744,0.083,0.0595,0.0577,0.0575,–,0.0655,0.0618,0.0655,0.0606,0.0541,–,0.0579
MGESLFKGPRDYNPISSSICHLTNESDGHTTSLYGIGFGPFIITNKHLFRRNNGTLVVQSLHGVFKVKDTTTLQQHLVDGRDMIIIRMPKDFPPFPQKLKFREPQREERICLVTTNFQTKSMSSMVSDTSCTFPSGDGIFWKHWIQTKDGQCGSPLVSTRDGFIVGIHSASNFTNTNNYFTSVPKNFMELLTNQEAQQWVSGWRLNANSVLWGGHKVFMVKPEEPFQPVKEATQL [D208N],0.0747,0.0656,–,0.0468,0.0616,–,–,0.0782,–,0.0761,0.0609,–,0.0507,0.0521,0.0546,–,0.0525
